Data as given in PubChem BioAssay AID588855 (National Center for Advancing Translational Sciences (NCATS), 2011).
The whole screen tested about 410,000 compounds, of which about 5,000 (1.2%) were called active. Inconclusive means that the source gave no clear call. Such entries were picked first, then a sample of the others. The call rests on the fitted dose curve; in most records, active means well fitted inhibition curve with a large enough effect; inconclusive means small, poorly fitted or top-dose-only effect; inactive means no such curve, though single readings can be large or run the other way. Potencies of inconclusive entries are doubtful fits and often do not repeat.

Test: qHTS for Inhibitors of TGF-b; further: nearly all actives have a fitted effect of over 65% in size
Conditions: HepG2 CAGA-GFP TGF-b/SMAD3 reporter, GFP fluorescence, 18 h, TGF-beta stimulated, 500 pg/mL final; series mostly up to 46.1 µM
How it was run: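 Cell-based qHTS in HEPG2 carrying a CAGA-GFP Smad reporter; compounds added before 500 pg/mL final TGF-beta, 18 h incubation at 37 degrees C, GFP fluorescence quantified per cell by imaging cytometry.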
Potency means the concentration at half of the fitted maximal effect; tags describe the fitted curve by direction and shape.

Row | SMILES | Potency
1 | COc1ccccc1NS(=O)(=O)c1cccs1 | inconclusive: 0.891 µM [inhibitor, full curve]
2 | CCCCN(C(=S)NC(=O)c1cc(OC)c(OC)c(OC)c1)c1c(N)n(Cc2ccccc2)c(=O)[nH]c1=O | inconclusive: 14.1 µM [inhibitor, partial curve, poor fit]
3 | COc1c(C)cc(C(O)c2ncc(-c3ccc(Cl)cc3)[nH]2)cc1C (configuration not stated) | inconclusive: 14.1 µM [inhibitor, single point]
4 | Cn1c(=O)c2cc3ccccc3nc2n(C)c1=O | inactive
5 | O=C(c1cc(-c2ccccc2)n[nH]1)N1CCN(S(=O)(=O)c2ccccc2)CC1 | inactive
6 | Cc1nn(C)c(C(=O)Nc2ccc(S(=O)(=O)NC34CC5CC(CC(C5)C3)C4)cc2)c1Br | inconclusive: 12.6 µM [inhibitor, partial curve, poor fit]
7 | N#CCC(=O)Nc1ccc(C(=O)NCc2cccc(Cl)c2)cc1 | inactive
8 | COc1ccc(Cn2nnnc2CN(Cc2cc3ccc(C)cc3[nH]c2=O)C2CCCC2)cc1 | inconclusive: 22.4 µM [inhibitor, partial curve, poor fit]
9 | COc1ccc(S(=O)(=O)NC(C)CCc2ccccc2)cc1 (configuration not stated) | inconclusive: 3.16 µM [inhibitor, single point]
10 | CC(=O)c1ccc(OCC(=O)Nc2ccc3c(c2)CCC3)cc1 | inconclusive: 2.82 µM [inhibitor, partial curve, poor fit]
11 | CC(=O)Nc1cc(-c2ccc(N(C)C)cc2)cn2c(-c3ccc(F)cc3)cnc12 | inactive
12 | CC(NC(=O)C1CCN(C(=O)c2ccc(-n3ccc4ccccc43)s2)CC1)c1ccccc1 (configuration not stated) | inconclusive: 12.6 µM [inhibitor, partial curve]
13 | CC(SCc1ccccc1)C(=O)NCc1ccccn1 (configuration not stated) | inconclusive: 35.5 µM [inhibitor, partial curve, poor fit]
14 | COc1cc(C2CC(=O)Nc3cc(C)c(C)cc32)cc(OC)c1OC (configuration not stated) | inactive
15 | C=CCN(c1ccccc1)S(=O)(=O)c1ccc2c(c1)NC(=O)C(C)C(=O)N2 (configuration not stated) | inactive
16 | Oc1ccccc1N1CCN(c2ncnc3scc(-c4ccc(F)cc4)c23)CC1 | inconclusive: 14.1 µM [inhibitor, partial curve, poor fit]
17 | CC1(C(=O)Nc2cnc3ccccc3c2)CCN1Cc1ccccc1Cl (configuration not stated) | inconclusive: 12.6 µM [inhibitor, single point]
18 | CS(=O)(=O)c1ccc(N2CCN(S(=O)(=O)c3cccs3)CC2)c([N+](=O)[O-])c1 | inconclusive: 15.8 µM [inhibitor, partial curve, poor fit]
19 | O=C(NCc1cccnc1)c1cccc(S(=O)(=O)NCc2ccccc2)c1 | inconclusive: 6.31 µM [inhibitor, single point]
20 | Cc1nc2scc(-c3ccccc3)c2c(=O)o1 | inactive
21 | CCOC(=O)C1=C[C@@H](C(C)C)N(S(=O)(=O)c2ccc(C)cc2)[C@H]1c1ccc(C(C)C)cc1 | inconclusive: 12.6 µM [inhibitor, partial curve, poor fit]

Row | SMILES | Potency
22 | COc1ccc(CC(=O)Nc2ccc(S(=O)(=O)N3CCC(C)CC3)cc2)c(OC)c1 | inconclusive: 22.4 µM [inhibitor, single point]
23 | CC(C)c1cc(CNC(=O)CCc2nnc(CCCc3ccccc3)o2)on1 | inactive
24 | CCCN(C(=S)Nc1ccccc1)C1CCS(=O)(=O)C1 (configuration not stated) | inconclusive: 20 µM [inhibitor, single point]
25 | O=C(CCN1CCN(c2ccccc2)CC1)N/N=C/c1ccccc1OC(F)F | inconclusive: 11.2 µM [inhibitor, single point]
26 | CCOc1ccc2nc(Nc3nc4ccc(NC(C)=O)cc4s3)sc2c1 | inconclusive: 11.2 µM [inhibitor, single point]
27 | COC(=O)[C@]1(CC(C)C)N[C@H](c2ccc(-c3ccc(Cl)c(Cl)c3)cc2)[C@@H]2C(=O)N(C)C(=O)[C@@H]21 | inconclusive: 4.47 µM [inhibitor, full curve, poor fit]
28 | CCCCC(C)Sc1nc2c([nH]1)c(=S)n(C)c(=O)n2C (configuration not stated) | inconclusive: 5.01 µM [inhibitor, partial curve, poor fit]
29 | O=c1cc(C(F)(F)F)nc(-n2[nH]c3c(c2=O)CCCC3)[nH]1 | inactive
30 | COc1ccc(CNC(=O)C2CCN(S(=O)(=O)c3c(C)noc3/C=C/N(C)C)CC2)cc1 | inconclusive: 5.62 µM [inhibitor, single point]
31 | COc1ccc(C(=O)Nn2c(SCC(=O)NC3CCCCC3)nc3ccccc3c2=O)cc1 | inactive
32 | COc1ccc(-c2ccc(SCC(=O)N3CCN(c4ccccc4)CC3)nn2)cc1 | inconclusive: 22.4 µM [inhibitor, single point]
33 | O=C(/C=C/c1ccccc1)NC(NC(=S)Nc1ccc(Cl)cc1Cl)C(Cl)(Cl)Cl (configuration not stated) | inconclusive: 14.1 µM [inhibitor, partial curve, poor fit]
34 | CSc1ncccc1C(=O)NC1CCCCCCC1 | inactive
35 | O=C(CNS(=O)(=O)c1ccccc1)OCC(=O)c1ccc([N+](=O)[O-])cc1 | inactive
36 | COc1ccc(C(C)(C)C)cc1NC(=O)Nc1ccc2c(c1)OCO2 | inconclusive: 35.5 µM [inhibitor, single point]
37 | COc1ccc(Cl)cc1NC(=O)CSC1=Nc2ccccc2C2=NC(CC(=O)NC3CCCCC3)C(=O)N12 (configuration not stated) | inconclusive: 10 µM [inhibitor, partial curve]
38 | COc1cccc(-c2ncc3ccccc3c2COC(=O)N(C)C)c1 | inactive
39 | Cc1ccc(C2C3=C(NCCN=C3c3ccccc3)C(=O)N2c2ccccc2)cc1 (configuration not stated) | inconclusive: 35.5 µM [inhibitor, single point]
40 | CS(=O)(=O)c1oc(-c2ccc(F)cc2)nc1S(=O)(=O)c1ccc(Cl)cc1 | active: 3.16 µM
41 | CCOc1ccccc1CNC(=O)c1ccc(-c2nc(CSc3ccc(C)cc3)c(C)o2)cc1 | inactive
42 | Cc1c(Cl)cccc1NC(=S)Nc1ccc(S(=O)(=O)Nc2ncccn2)cc1 | inconclusive: 20 µM [inhibitor, single point]
